PubChem BioAssay AID903 (National Center for Advancing Translational Sciences (NCATS), 2007)
Among all 55,000 compounds or so, about 340 (0.62%) were called active. This list was built around the results that the source calls inconclusive (neither active nor inactive); the mix of calls is not that of the screen. Calls follow the shape of the dose curve; as a rule, active = well fitted cell-killing curve with a large enough effect; inconclusive = small, poorly fitted or top-dose-only effect; inactive = no such curve, though single readings can be large or run the other way. Potencies of inconclusive entries are doubtful fits and often do not repeat.

experiment: qHTS Screen for Compounds that Selectively Target Cancer Cells with p53 Mutations: Cytotoxicity of p53 Null Cells at the Permissive Temperature; details: H1299-neo p53 null cells, ATP luminescence, 24 h, 32C; series mostly up to 46.1 µM; also: nearly all actives have a fitted effect of over 55% in size
How it was run: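 We seeded p53-null H1299-neo cells, incubated them overnight at 37C, and added compounds across a range up to 46 uM. After 24 hours at 32C, ATP reagent was applied for 20 min at room temperature and luminescence recorded.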
Potency is read from the fitted curve at half-maximal effect; tags tell the direction and shape of the fitted curve.

Row | SMILES | Potency
1 | COC(=O)c1cccc(NC(=O)c2nsc3ccccc23)c1 | active: 3.16 µM
2 | Cc1c(-c2nc(-c3ccccc3F)no2)nnn1-c1cc(F)ccc1F | inconclusive: 2.51 µM [cytotoxic, full curve]
3 | O=c1oc2cc(O)ccc2cc1-c1nnc(Nc2ccccc2F)s1 | inconclusive: 12.6 µM [cytotoxic, partial curve]
4 | CCCCn1c(NCc2cc(Br)ccc2O)nc2ccccc21 | inactive
5 | Cc1cccc(NC(c2ccccc2C)c2ccc3ccc(C)nc3c2O)n1 (stereo not drawn) | inconclusive: 15.8 µM [cytotoxic, single point]
6 | O=C(Nc1cc(Cl)cc(Cl)c1)c1ccc(F)c(S(=O)(=O)NC2CCCCC2)c1 | inconclusive: 25.1 µM [cytotoxic, partial curve, poor fit]
7 | COc1cccc(CNC(=O)C(=O)Nc2ccc3nc4n(c(=O)c3c2)CCCCC4)c1 | inactive
8 | Cc1ccc(-c2cc(C(=O)Oc3ccccc3Cl)no2)cc1C | inconclusive: 11.2 µM [cytotoxic, partial curve]
9 | CCC(O)c1cc2c(cc1NC(=O)c1ccccc1F)OCCO2 (stereo not drawn) | inconclusive: 5.62 µM [cytotoxic, single point]
10 | COc1ccc(-c2cc(C(C)=O)c(C)n2CCC(=O)Nc2ccc(C(F)(F)F)cc2)cc1 | inconclusive: 0.794 µM [cytotoxic, partial curve]
11 | Clc1cccc(C2=NC(c3cccs3)=Nc3ccc(Br)cc3N2)c1 | inactive
12 | CCN(CC)CCOC(=O)c1ccc(NC(=O)c2cc3c(s2)-c2ccccc2OC3)cc1 | inconclusive: 25.1 µM [cytotoxic, single point]
13 | CC(=O)CSc1nnc(-c2ccc3c(c2)OCO3)o1 | inconclusive: 15.8 µM [cytotoxic, single point]
14 | Cc1cccc2c1-c1sc(C(=O)NCCCN3CCN(c4ccccc4F)CC3)cc1CO2 | inactive
15 | O=C(CCS(=O)(=O)c1nc(-c2ccc3c(c2)OCO3)cc(C(F)(F)F)n1)Nc1ccc(Br)cc1 | inconclusive: 35.5 µM [cytotoxic, single point]
16 | CCCCN(CC)C(=O)c1c[nH]c2ccc(S(=O)(=O)N(C)c3ccc(Cl)cc3)cc2c1=O | inactive
17 | COc1ccc(NC(=O)c2nnn(CC(=O)Nc3ccc(C)c(C)c3)c2N)cc1OC | inactive
18 | Clc1ccc(-c2noc3ncnc(NC4CCCCC4)c23)cc1 | inactive
19 | CCN1CCN(Cc2c(O)ccc3oc(C)c(C(=O)Nc4cccc(Cl)c4C)c23)CC1 | inactive
20 | CC(=O)Nc1cccc(-c2nc(-c3ccccc3)no2)c1 | inconclusive: 35.5 µM [cytotoxic, partial curve]
21 | CCCCN(CC)C(=O)CSc1nc2n[nH]c(C)c2c(=N)n1-c1ccc(CC)cc1 | inconclusive: 10 µM [cytotoxic, partial curve]
22 | CC1CCN(C(=O)CSc2nc3[nH]ncc3c(=O)[nH]2)CC1 | inconclusive: 7.08 µM [cytotoxic, full curve, poor fit]
23 | O=c1c2sc3ccccc3c2n(Cc2cccc(F)c2)c(=O)n1CCc1ccccc1 | inconclusive: 5.62 µM [cytotoxic, single point]

Row | SMILES | Potency
24 | Cc1ccc(NS(=O)(=O)c2ccc(-n3cccn3)cc2)cc1Cl | inactive
25 | Cc1cccc(NS(=O)(=O)c2ccc3[nH]c4c(c3c2)CCCCCC4)c1 | inactive
26 | CCOC(=O)c1cccc(NC(=O)c2cc3ccccn3n2)c1 | active: 12.6 µM
27 | COc1cc(/C=C(\C#N)c2nc3ccccc3[nH]2)ccc1OCc1cccc(C(F)(F)F)c1 | inconclusive: 31.6 µM [cytotoxic, single point]
28 | COc1ccc(Nc2nc(N)c3cc(OC)c(OC)cc3n2)cc1 | inconclusive: 20 µM [cytotoxic, single point]
29 | O=C(Nc1ccc(N2CCOCC2)cc1)c1cccnc1 | inconclusive: 7.94 µM [cytotoxic, partial curve]
30 | CCN1C(C(=O)c2ccccc2)=C(OC(=O)c2ccccc2OC)c2ccccc2S1(=O)=O | inconclusive: 31.6 µM [cytotoxic, single point]
31 | CCC(C(=O)NCCc1ccccc1)n1nc(C)n2c(cc3sccc32)c1=O (stereo not drawn) | inactive
32 | COc1cccc(/C=C/C(=O)Nc2ccc3nc(N4CCN(C)CC4)cc(C)c3c2)c1OC | inconclusive: 11.2 µM [cytotoxic, partial curve]
33 | CCc1ccccc1N1CC(c2nc3ccccc3n2CCCCOc2ccccc2)CC1=O (stereo not drawn) | inconclusive: 31.6 µM [cytotoxic, single point]
34 | O=C(CCS(=O)(=O)c1ccccc1)N(Cc1cccnc1)c1nc2ccc(F)cc2s1 | inconclusive: 31.6 µM [cytotoxic, single point]
35 | C(=N\Nc1nc2ccccc2s1)/c1ccc2c(c1)OCO2 | inconclusive: 11.2 µM [cytotoxic, partial curve]
36 | CCCS(=O)(=O)Nc1cccc(-c2cn3ccc(C)cc3n2)c1 | inconclusive: 12.6 µM [cytotoxic, partial curve]
37 | Nc1nc2ccc(-c3nc4ccccc4o3)cc2s1 | inconclusive: 11.2 µM [cytotoxic, single point]
38 | O=C(NC(=S)N1CCN(c2ccc(C(F)(F)F)cc2[N+](=O)[O-])CC1)c1cccs1 | inconclusive: 7.94 µM [cytotoxic, partial curve]
39 | O=C(NCc1cccc(F)c1)c1ccc(NC(=O)c2nsc3ccccc23)cc1 | inconclusive: 10 µM [cytotoxic, partial curve]
40 | CCCCS(=O)(=O)c1oc(-c2ccc(F)cc2)nc1S(=O)(=O)c1ccc(C)cc1 | active: 15.8 µM
41 | Cc1ccc(/C=C/C(=O)Nc2ccccc2C(N)=O)o1 | active: 12.6 µM
42 | COc1ccc(F)cc1S(=O)(=O)Nc1cccc(-c2ccc(N3CCC(C)CC3)nn2)c1 | inconclusive: 12.6 µM [cytotoxic, partial curve]
43 | COc1ccc(Nc2ncnc3c2nc2n3CCCCC2)cc1 | inconclusive: 20 µM [cytotoxic, partial curve, poor fit]
44 | CCc1ccc(CNC(=O)c2cnc3c(C)cccn3c2=O)cc1 | inactive
45 | COc1cccc(NC(=O)CSc2c3c(nc4ccccc24)CCCC3)c1 | inactive
46 | COc1ccc(OC)c(C2CC(=O)Nc3c2c(=O)[nH]c2nc4ccccc4n32)c1 (stereo not drawn) | inconclusive: 31.6 µM [cytotoxic, single point]

Row | SMILES | Potency
47 | CCOc1ccc(NC(=O)c2cnccn2)cc1 | inconclusive: 12.6 µM [cytotoxic, partial curve]
48 | Cc1ccc(NC(=O)/C=C/c2ccco2)cc1F | inconclusive: 12.6 µM [cytotoxic, partial curve]
49 | Cc1cccc(CN2CCN(CC(=O)NCCc3ccc(Cl)cc3)C2=O)c1 | inactive
50 | O=C(Cn1cc(C(=O)c2ccccc2)c(=O)c2cc3c(cc21)OCCO3)Nc1ccc(F)c(F)c1 | inconclusive: 15.8 µM [cytotoxic, single point]
51 | CC(C)NC(=O)c1ccc2c(c1)nc1n2CCCCC1 | inconclusive: 35.5 µM [cytotoxic, single point]
52 | Cc1ccc2nc(Cl)c3cc(C(=O)NCCCN4CCC(C)CC4)sc3c2c1 | inconclusive: 6.31 µM [cytotoxic, single point]
53 | CC1C(=O)Nc2ccc(S(=O)(=O)Nc3ccccc3Br)cc2NC1=O (stereo not drawn) | inconclusive: 15.8 µM [cytotoxic, single point]
54 | COc1ccc(CNC(=O)Cn2nnc(-c3ccccc3F)n2)cc1 | inconclusive: 31.6 µM [cytotoxic, single point]
55 | CCCCN(C)CC(O)Cn1cc(/C=C/C(=O)c2ccc(OC)c(OC)c2)c2ccccc21 (stereo not drawn) | inconclusive: 25.1 µM [cytotoxic, single point]
56 | C#CCn1c(/C=C/c2ccc(Cl)cc2)nc2ccccc21 | active: 3.16 µM
57 | Clc1cccc(N2CCN(c3ncnc4c3nc3n4CCCC3)CC2)c1 | inactive
58 | CCOc1ccc(NC(=O)Cn2cc(C(=O)c3ccc(F)cc3)c(=O)c3cc4c(cc32)OCO4)cc1 | inconclusive: 31.6 µM [cytotoxic, single point]
59 | CCOc1ccc(NC(=O)NC(C)c2c(-n3cccc3)sc3c2CCN(CC)C3)cc1 (stereo not drawn) | inactive
60 | COc1cccc(CCNC(=O)c2ccc(Cn3c(SCc4ccccc4)nc4cccnc43)cc2)c1 | inconclusive: 12.6 µM [cytotoxic, partial curve]
61 | COc1ccccc1-c1cc(C(F)(F)F)nc(S(=O)(=O)CCCC(=O)Nc2ccccc2F)n1 | inconclusive: 25.1 µM [cytotoxic, single point]
62 | Cc1ccc(NC(=O)CN(C)S(=O)(=O)c2cccc3cccnc23)c(C)c1 | inconclusive: 0.02 µM [cytotoxic, full curve]
63 | CN(C)c1ccc(C(=O)Nc2sc(Nc3ccccc3)nc2C(N)=O)cc1 | inconclusive: 31.6 µM [cytotoxic, single point]
64 | CCCN(CCC)CCNC(=O)CS(=O)Cc1nc(-c2ccc(OC)c(OC)c2)oc1C (stereo not drawn) | inactive
65 | CCOc1ccc(C2c3[nH]c4ccccc4c3CCN2C(=O)CSc2ccccc2)cc1 (stereo not drawn) | inconclusive: 5.62 µM [cytotoxic, single point]
66 | CCOc1cc(CNCCSc2nnnn2C)ccc1OCc1ccc(Cl)cc1Cl | inconclusive: 25.1 µM [cytotoxic, single point]
67 | COc1ccc(CN2C(=O)N(c3cccc(C)c3)C(=O)C2CC(=O)Nc2ccc(F)cc2)cc1OC (stereo not drawn) | inconclusive: 5.62 µM [cytotoxic, single point]
68 | Cc1ccc(CNC(=O)c2cc3cc(C)ccc3n2C)cc1 | inconclusive: 0.631 µM [cytotoxic, full curve, poor fit]
